# From PubChem BioAssay AID1347165 (National Center for Advancing Translational Sciences (NCATS), 2019)
# Screen size: about 220,000 compounds; about 5,700 (2.6%) were called active. This list was built around the results that the source calls inconclusive (neither active nor inactive); the mix of calls is not that of the screen. Calls come from the whole dose curve; as a rule, active = well fitted inhibition curve with a large enough effect; inconclusive = small, poorly fitted or top-dose-only effect; inactive = no such curve, though single readings can be large or run the other way. Potencies of inconclusive entries are doubtful fits and often do not repeat.
# Biological target: Lysine-specific demethylase 5B (Homo sapiens) (UniProt Q9UGL1)
# Assay: Primary screen for KDM5B Histone Demethylases FDH-coupled qHTS; note: nearly all actives have a fitted effect of over 70% in size; for activity change, negative = inhibition: 0% is about no effect
# Settings: FDH-coupled NADH fluorescence (FDH is formaldehyde dehydrogenase); activity change, negative = inhibition: at 57.7 µM (top of the series) unless noted
# Method in brief: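 Here, H3K4me3 peptide (12.5 µM in substrate mix) is demethylated by KDM5BΔAP, 200 nM final, after 10 min compound exposure. Formaldehyde product is coupled through FDH (0.25 U/mL in mix) to NADH fluorescence; 30-min ΔRFU feeds dose-response curves.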
# Potency is the fitted concentration of half-maximal effect; tags give direction and shape of the fitted curve.
# UniProt Q9UGL1, sequence (Q9UGL1 whole entry, looked up): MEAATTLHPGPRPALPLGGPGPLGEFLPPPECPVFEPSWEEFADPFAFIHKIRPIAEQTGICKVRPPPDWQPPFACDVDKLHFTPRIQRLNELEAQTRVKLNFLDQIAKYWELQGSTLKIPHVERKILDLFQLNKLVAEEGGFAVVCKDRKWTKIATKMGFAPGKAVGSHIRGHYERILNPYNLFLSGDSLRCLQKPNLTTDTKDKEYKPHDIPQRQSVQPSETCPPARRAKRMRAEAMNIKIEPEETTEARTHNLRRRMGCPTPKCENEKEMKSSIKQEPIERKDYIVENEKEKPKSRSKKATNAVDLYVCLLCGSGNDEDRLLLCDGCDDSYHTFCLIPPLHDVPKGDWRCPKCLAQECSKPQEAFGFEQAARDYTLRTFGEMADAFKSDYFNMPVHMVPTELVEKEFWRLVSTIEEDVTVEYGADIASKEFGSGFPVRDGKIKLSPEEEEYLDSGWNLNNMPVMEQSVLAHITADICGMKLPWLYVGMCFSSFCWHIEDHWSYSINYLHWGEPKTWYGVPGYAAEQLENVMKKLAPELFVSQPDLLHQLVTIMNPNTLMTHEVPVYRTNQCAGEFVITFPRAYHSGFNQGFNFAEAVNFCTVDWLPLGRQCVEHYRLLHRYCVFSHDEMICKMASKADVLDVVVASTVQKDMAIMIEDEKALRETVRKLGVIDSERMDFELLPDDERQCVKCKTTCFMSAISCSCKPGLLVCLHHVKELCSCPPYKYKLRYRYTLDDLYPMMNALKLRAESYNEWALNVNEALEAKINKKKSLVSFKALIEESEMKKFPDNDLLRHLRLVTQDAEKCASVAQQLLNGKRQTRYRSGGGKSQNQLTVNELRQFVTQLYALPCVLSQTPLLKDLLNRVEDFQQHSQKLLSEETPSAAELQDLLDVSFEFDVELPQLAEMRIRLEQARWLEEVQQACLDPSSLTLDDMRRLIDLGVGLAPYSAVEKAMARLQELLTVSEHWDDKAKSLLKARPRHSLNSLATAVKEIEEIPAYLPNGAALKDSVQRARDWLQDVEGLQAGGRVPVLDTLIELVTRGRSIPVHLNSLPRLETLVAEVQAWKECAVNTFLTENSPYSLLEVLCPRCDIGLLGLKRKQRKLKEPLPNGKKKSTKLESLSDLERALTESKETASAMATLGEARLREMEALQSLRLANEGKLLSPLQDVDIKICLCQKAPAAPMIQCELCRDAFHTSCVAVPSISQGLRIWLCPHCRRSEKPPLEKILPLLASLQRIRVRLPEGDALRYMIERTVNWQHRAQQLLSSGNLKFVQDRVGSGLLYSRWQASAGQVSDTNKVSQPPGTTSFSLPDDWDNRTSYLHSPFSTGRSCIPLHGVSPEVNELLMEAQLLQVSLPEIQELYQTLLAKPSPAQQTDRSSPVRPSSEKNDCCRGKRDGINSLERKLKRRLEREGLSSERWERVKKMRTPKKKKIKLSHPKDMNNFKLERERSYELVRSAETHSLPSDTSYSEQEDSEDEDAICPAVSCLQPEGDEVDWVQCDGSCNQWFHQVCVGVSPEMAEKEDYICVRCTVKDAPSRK
Compound,Potency,"activity change, negative = inhibition"
O=C(Cn1c(=O)c(CNc2ccccc2)cc2cc3c(cc21)OCCO3)Nc1ccccc1Cl,"inconclusive: 15.8 µM [inhibitor, partial curve, poor fit]",–
Cc1cn2nnc(C(=O)NC3CCCCC3)c2c(=O)[nH]1,"inconclusive: 15.8 µM [inhibitor, partial curve]",–
CCc1ccc2oc(-c3ccc(C)c(NC(=O)Cc4ccccc4)c3)nc2c1,"inconclusive: 3.55 µM [inhibitor, partial curve, poor fit]",–
CC(C)n1cc(CN2CCc3n[nH]c(=O)n3CC2)cn1,–,inactive: 25.8%
C=C(C)Cn1c(-n2nc(C)cc2C)nc2c1c(=O)n(CCOC)c(=O)n2C,–,inactive: -13.3%
Cc1cc(C)cc(N2CCn3c2nc2c3c(=O)n(Cc3c(F)cccc3Cl)c(=O)n2C)c1,–,inconclusive: -30.3% [inhibitor]
CCc1ccccc1N/N=C(/c1ccccc1)c1ccc(Br)cc1,"inconclusive: 25.1 µM [inhibitor, single point]",–
Cc1ccc(C(=O)Nc2ccc3c(N4CCCCC4)ncnc3c2)s1,"inconclusive: 25.1 µM [inhibitor, single point]",–
Cc1cc(=O)oc2cc(OCC(=O)Nc3ccc4ccccc4c3)ccc12,–,inactive: 7.92%
Cn1c(C(=O)Nc2ccc3c(c2)OCO3)cc2c1CCN(Cc1cccc(F)c1)C2,"inconclusive: 15.8 µM [inhibitor, partial curve]",–
COc1cccc(C(=O)Nc2c(C(=O)N3CCN(Cc4ccccc4)CC3)oc3ccccc23)c1,"inconclusive: 28.2 µM [inhibitor, single point]",–
COc1ccc(N2CC(c3noc(-c4ccc(C)c(C)c4)n3)CC2=O)cc1 (stereo not drawn),"inconclusive: 28.2 µM [inhibitor, partial curve, poor fit]",–
FC(F)(F)c1cc(Nc2nc3ccccc3c3nncn23)ccc1Cl,"inconclusive: 10 µM [inhibitor, partial curve, poor fit]",–
O=C(c1n[nH]c2c1CCCC2)N1CCc2nc3cc[nH]n3c(=O)c2C1,"inconclusive: 31.6 µM [inhibitor, partial curve, poor fit]",–
COC(=O)c1ccc(C2C(c3ccc(C)cc3)=C(O)C(=O)N2CCc2ccc(OC)c(OC)c2)cc1 (stereo not drawn),–,inactive: 12%
O=C(CSc1nc2nc[nH]c2c(=O)[nH]1)c1ccc(F)cc1,–,inactive: 2.52%
O=C1CC2(CCN(C(=O)c3ccccc3F)CC2)CN1C/C=C/c1ccccc1,–,inactive: 14.7%
O=[S+]([O-])(c1cccs1)N1CCc2nc(-c3ccc(Cl)cc3)nc(-c3ccccc3)c2C1,"inconclusive: 25.1 µM [inhibitor, partial curve, poor fit]",–
O=C(Nc1ncn[nH]1)C1CC(=O)N(c2ccccc2)C1 (stereo not drawn),–,inactive: 16.6%
O=C(Cn1nc2n(c1=O)CCCC2)NCCC1=CCCCC1,–,inactive: 18.6%
O=C(Nc1ccc(N2CCN(c3ccc(F)cc3)CC2)c(C(=O)O)c1)c1cccs1,–,inactive: -29.6%
CCN(CC)c1nn2c(=O)c(C(=O)NCCc3ccccc3C)cnc2s1,"inconclusive: 28.2 µM [inhibitor, partial curve, poor fit]",–

Compound,Potency,"activity change, negative = inhibition"
CCOC(=O)c1ccccc1NC(=O)CN1C(=O)CC(c2ccccc2)Sc2ccccc21 (stereo not drawn),"inconclusive: 25.1 µM [inhibitor, partial curve, poor fit]",–
Fc1ccccc1N1CCN(c2ncnc3onc(-c4ccc(Cl)cc4)c23)CC1,"inconclusive: 35.5 µM [inhibitor, partial curve, poor fit]",–
CCCCOc1ccc(C(=O)NCc2cn3cccc(C)c3n2)cc1,"inconclusive: 31.6 µM [inhibitor, partial curve, poor fit]",–
O=C(OCc1ccccc1)c1nc2ccccc2nc1N1CCN(c2ccccc2)CC1,"inconclusive: 39.8 µM [inhibitor, single point]",–
O=C(NC1CCCC1)c1ccc2c(c1)n(Cc1cccc(F)c1)c(=O)c1ccnn12,"inconclusive: 31.6 µM [inhibitor, partial curve, poor fit]",–
CC(CNC(=O)c1cc2ccccc2[nH]1)c1ccccc1 (stereo not drawn),–,inactive: 11.8%
Cn1nc(C(=O)NC2CCN(c3cc(-c4cccs4)[nH]n3)C2)c2ccccc21 (stereo not drawn),"inconclusive: 10 µM [inhibitor, partial curve]",–
Cc1cc(C)c(NC(=O)c2oc3c(c2C)-c2[nH]ncc2CC3)c(C)c1,–,inactive: -67.8%
Cc1cccc(C)c1NC(=O)CSc1ncc(-c2ccc(F)cc2)o1,–,inactive: -1.55%
CCn1c(CC23CC4CC(CC(C4)C2)C3)nnc1SCc1ccc(F)cc1,–,inactive: -8.45%
COc1ccc2nc(NS(=O)(=O)c3ccc(C)cc3)c(Nc3ccc4c(c3)OCO4)nc2c1,–,inactive: -2.53%
CN(C)C(=O)c1nc(-c2ccc(Cl)cc2)c2ccccn12,active: 8.91 µM,–
CCc1noc(-c2cccn3c(CNC(=O)c4cc(C)cc(C)c4)nnc23)n1,"inconclusive: 31.6 µM [inhibitor, partial curve, poor fit]",–
CCn1nnc2cc(C(=O)Nc3cc(C)ccc3C)ccc21,"inconclusive: 1 µM [inhibitor, partial curve, poor fit]",–
COc1ccc(-c2c(C)oc3c(C)c(OCCN4CCC(C(N)=O)CC4)ccc3c2=O)cc1,–,inactive: -6.57%
O=C(N/N=C/c1ccccn1)c1cc(-c2ccc(Cl)s2)[nH]n1,"inconclusive: 14.1 µM [inhibitor, partial curve, poor fit]",–
CN(C(=O)[C@@H]1C[C@H](c2ccc(F)cc2)N([S+](=O)([O-])C2CC2)C1)c1cccnc1,–,inactive: 14% [at 86.2 µM]
Cc1ccc(-c2cc(NC(=O)C(C)C)c(=O)n(CC(=O)Nc3cccc(C(F)(F)F)c3)n2)cc1,"inconclusive: 22.4 µM [inhibitor, partial curve, poor fit]",–
O=C(NCCc1ccccc1)c1ccc2c(c1)OCCN(c1ccccc1)C2,"inconclusive: 39.8 µM [inhibitor, single point]",–
CSCCC(=O)N1CCN(c2oc(-c3ccco3)nc2C#N)CC1,"inconclusive: 22.4 µM [inhibitor, partial curve, poor fit]",–
Cc1ccccc1CNC(=O)CCC(=O)N1CCSc2ccccc21,–,inconclusive: -33.5% [inhibitor]
